# Test results from the BET-seq Pho4 binding data (Le et al. 2018).
# The list shows a part of the results. These are noisy estimates, calculated here from bound and input reads.
# Molecular target: T1, Pho4 (S. cerevisiae) (UniProt P07270)
# T1 sequence: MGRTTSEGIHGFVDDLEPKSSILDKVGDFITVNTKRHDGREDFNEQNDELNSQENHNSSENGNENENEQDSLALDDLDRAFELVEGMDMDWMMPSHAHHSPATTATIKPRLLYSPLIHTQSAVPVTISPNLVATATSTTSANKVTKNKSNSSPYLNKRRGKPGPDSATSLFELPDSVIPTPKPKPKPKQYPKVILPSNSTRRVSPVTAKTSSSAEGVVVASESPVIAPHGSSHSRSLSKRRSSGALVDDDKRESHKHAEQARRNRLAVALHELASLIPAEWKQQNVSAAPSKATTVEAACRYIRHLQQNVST
# Test: relative binding free energy (BET-seq); higher = weaker binding
# Conditions: reference: library average
row,Sequence,relative binding free energy [kcal/mol]
1,GCCGTCACGTGGTGTA,0.16
2,AATATCACGTGGGGGA,0
3,TTGCTCACGTGTTCGA,0.35
4,CGTGTCACGTGTCGGA,0.2
5,TGTGGCACGTGCGGGT,-0.15
6,GTTTGCACGTGACTAG,0.22
7,TCAATCACGTGTATGT,0.21
8,TTTAGCACGTGCGTTG,-0.12
9,AGGATCACGTGGTACG,0.22
10,AAAGGCACGTGTGTCA,-0.02
11,GAGGGCACGTGGCTTT,-0.05
12,ATAGGCACGTGAATAT,0.1
13,CAAAACACGTGGTTGT,0.11
14,TTATTCACGTGTGCAT,0.35
15,CGTCGCACGTGGGCGG,-0.23
16,GCATGCACGTGTGTTA,0.02
17,CGGTTCACGTGGCTTA,0.31
18,GGGATCACGTGGAATA,0.2
19,TTCGTCACGTGTGGAA,0.11
20,ATTGTCACGTGGAGGG,0.15
21,TTAAGCACGTGTAAAA,0.11
22,CGAGTCACGTGTGCGT,-0.02
23,GAGAGCACGTGAAGTG,0.21

row,Sequence,relative binding free energy [kcal/mol]
1,TCTGTCACGTGTGTCT,0.05
2,TTATTCACGTGGTGGG,0.2
3,TTTCACACGTGGAAGT,0.23
4,AGTATCACGTGTTCGT,-0.11
5,AATGGCACGTGTTGAA,-0.11
6,TTGTCCACGTGATTTT,0.23
7,TACAGCACGTGCGGGT,0
8,CGGTGCACGTGGCTCT,0
9,CGTAACACGTGGGGCT,-0.18
10,TTTGACACGTGAGTTC,0.16
11,GTGTGCACGTGTCACG,-0.02
12,TTTAGCACGTGATAGA,0.05
13,TGGAGCACGTGTAGTA,-0.01
14,TATAGCACGTGAGTCA,0.24
15,TTGTACACGTGGGAGG,-0.1
16,GGGTGCACGTGGTATT,0.04
17,CTATGCACGTGCTGTG,-0.1
18,TTATACACGTGTGCTT,0.15
19,GGGCACACGTGTCCGG,0.26
20,CTTCGCACGTGGTGGG,-0.19
21,TTGGCCACGTGGAGCT,0.01
22,AACAGCACGTGAGTGT,0.12
23,GGGGGCACGTGTCGGA,-0.06

row,Sequence,relative binding free energy [kcal/mol]
1,GTAATCACGTGTGGAG,0.21
2,TTCTGCACGTGGTAGA,0.04
3,TGGGACACGTGCGATG,0.11
4,TGTTACACGTGGATGT,0.07
5,TAAGGCACGTGTGGGC,0.01
6,TGTAGCACGTGTGAAT,0.05
7,TTCATCACGTGGTTGT,0.06
8,AGGCTCACGTGAGTAG,0.23
9,TTTAACACGTGGACGT,0.11
10,TAGTGCACGTGAAAGG,0.23
11,TCAAGCACGTGTTGAG,-0.04
12,TGGCGCACGTGGGTAT,-0.24
13,ATACGCACGTGGGTTT,-0.41
14,GTTAGCACGTGTACGG,-0.01
15,TTTCGCACGTGATGGT,0.15
16,CGTTTCACGTGATGTA,0.27
17,ATGGACACGTGCGATT,0.16
18,GGTTTCACGTGTGGAG,0.35
19,TCGAACACGTGTGTTG,0.09
20,GTGTGCACGTGGCGTT,-0.08
21,TTTTGCACGTGGTCCA,-0.03
22,TTTGCCACGTGATAGG,-0.1
23,ATAGGCACGTGTGTTC,-0.07

row,Sequence,relative binding free energy [kcal/mol]
1,TAGTGCACGTGGCGCT,-0.07
2,AAATGCACGTGTGTGG,0.04
3,TGGAGCACGTGATATT,0.11
4,TATGGCACGTGGTTTT,-0.16
5,GGGCACACGTGGTGTG,-0.04
6,TGGAGCACGTGCGTAA,-0.06
7,TTTTTCACGTGGTCCT,0.23
8,ATTCACACGTGTGGTA,0.1
9,ATTCTCACGTGGTTAG,0.08
10,GTCAACACGTGGGGGC,-0.08
11,GCCGTCACGTGAGTGG,0.19
12,AGGTCCACGTGTGGGG,0.09
13,CGTGTCACGTGTGTCT,0.1
14,GATCTCACGTGTGCGT,0.38
15,GTTTCCACGTGTTGTT,0.23
16,TGGGTCACGTGGGAAT,0.18
17,TGAGGCACGTGGACTG,-0.12
18,GGAATCACGTGTTTGT,0.2
19,TGGAGCACGTGATAAT,0.07
20,TGTCACACGTGGGTGG,0
21,TACGTCACGTGTGTGG,0.03
22,CGGATCACGTGGCGGT,0.13
23,TAGTACACGTGCTAGT,0.07

row,Sequence,relative binding free energy [kcal/mol]
1,GGACCCACGTGGGTGG,-0.38
2,AGATTCACGTGTGCTT,0.43
3,AAAAGCACGTGTAGTA,0.04
4,ATCGTCACGTGGTGAT,-0.01
5,GGGCTCACGTGTGTGA,0.22
6,TCGGGCACGTGCAAGG,0.04
7,GGATACACGTGGGGGG,-0.06
8,TGCAACACGTGTGAGG,0.09
9,TGGTGCACGTGATGTT,0.11
10,TTTATCACGTGGGCAA,0.18
11,TACGTCACGTGGGTTT,-0.06
12,TGTTGCACGTGCAAGG,0.03
13,TTAAGCACGTGTAATG,-0.02
14,GGATTCACGTGAGGTT,0.49
15,ATATTCACGTGCGTTG,0.21
16,CGGGGCACGTGCGAAG,-0.1
17,TATGACACGTGTATGT,0.04
18,AGGCTCACGTGTTAGT,0.23
19,GAGGTCACGTGTCGTT,0.36
20,GTGGTCACGTGTTCGA,0.19
21,ATGCGCACGTGGTGTG,-0.23
22,CGGTACACGTGTAAGG,0.02
23,CGTTTCACGTGGGTGT,0.12
